The source of these data is PubChem BioAssay AID485344 (National Center for Advancing Translational Sciences (NCATS), 2010).

About 6,900 (2%) of roughly 340,000 compounds were called active. No stated cut-off is given here; in the data, active means inhibition above about 30%; inactive means below that, where a call was filed. The entries are a selection whose mix differs from that of the whole data set. The source gives no active or inactive call for entries shown without one.

Chain of UniProt P14416 (P14416 whole entry, looked up): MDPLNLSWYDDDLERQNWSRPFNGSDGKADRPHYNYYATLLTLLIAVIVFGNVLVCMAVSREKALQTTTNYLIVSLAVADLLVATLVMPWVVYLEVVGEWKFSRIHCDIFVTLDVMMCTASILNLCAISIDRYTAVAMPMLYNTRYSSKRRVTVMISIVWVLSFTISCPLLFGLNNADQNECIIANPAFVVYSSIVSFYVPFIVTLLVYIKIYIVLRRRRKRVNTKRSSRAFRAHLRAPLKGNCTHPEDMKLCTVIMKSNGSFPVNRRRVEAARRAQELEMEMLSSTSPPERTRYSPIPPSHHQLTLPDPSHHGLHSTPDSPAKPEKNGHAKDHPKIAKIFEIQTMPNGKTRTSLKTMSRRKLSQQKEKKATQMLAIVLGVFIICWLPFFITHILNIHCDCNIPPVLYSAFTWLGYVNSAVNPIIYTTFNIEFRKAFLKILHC

The target of the assay is D(2) dopamine receptor (Homo sapiens) (UniProt P14416). The assay can be described thus: HTS Assay for Allosteric Antagonists of the Human D2 Dopamine Receptor: Primary Screen for Antagonists. Further: 0% is about no effect. Particulars: HEK293 TREx D2 cells, calcium flux, dopamine EC80; at 10 µM; stronger effect = higher value. The essentials:
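Measurement of antagonist activity uses fluorescent calcium dye in inducible HEK293 T-REx D2 cells: 10 s baseline, compound addition with 180 s read, EC80 dopamine addition with a further 180 s read.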
In general terms: Calcium assays in cells follow changes in intracellular calcium, usually with a dye or a luminescent sensor.
The term inhibition denotes the change of the read-out against control, counted positive when it falls. As to `Cc1cc(Nc2cccc(Cl)c2)nc2ccc(NC(=O)Cc3ccc(Cl)cc3)cc12`, the inhibition was -11.5%.

As to `COc1cc(N2C(=O)CSC23C(=O)N(Cc2cccc(F)c2)c2ccccc23)cc(OC)c1OC` (stereo unspecified), the inhibition was found to be 0.667%.

For `CCOC(=O)Cn1c(=O)n(CC2CCCO2)c2nc(-c3ccc(OCC)cc3)nc(C(N)=O)c21` (stereo unspecified), the inhibition was -2.39%.

`CCN(CC)CCNC(=O)CN1C(=O)COc2ccc(S(=O)(=O)N3CCOCC3)cc21`: the inhibition was -13%.

Turning to `COc1cc(NC(=O)c2nn(C)c3c2CS(=O)(=O)c2ccccc2-3)cc(OC)c1`, the inhibition was -1.28%.

As to `O=C(Nc1ccc2nc3n(c(=O)c2c1)CCCCC3)C(=O)Nc1ccccc1F`, the inhibition is 2.02%.

`CCc1ccc(Cn2c(CNS(=O)(=O)c3ccc([N+](=O)[O-])cc3)nc3cccnc32)cc1`: the inhibition was -13.4%.

Consider `Cc1cccc(Nc2nn3c(=O)c4cc5c(cc4nc3s2)OCO5)c1`, for which the inhibition was determined as 1.26%.

Consider `Cc1ccc(C(=O)NCc2ccc3c(c2)CCN3C(=O)c2ccc(C)cc2)cc1`, for which the inhibition was -24.2%.

As for `COCCNC(=O)c1ccc(-n2c(-c3ccccc3)cc3c2CCC(C)C3)cc1` (stereo unspecified), the inhibition is -5.07%.

As to `CCn1nc(C)c(CCN(C)C(=O)Nc2ccc(C)c(Cl)c2)c1C`, the inhibition was found to be 4.01%.

As for `CCCN1CCN(CCCNC(=O)c2cc3c(=O)[nH]c4ccc(C)cc4c3s2)CC1`, the inhibition is active: 42.6%.

In the case of `CCOC(=O)c1cc(-c2ccc(OC)c(S(=O)(=O)NC3CCCCC3)c2)on1`, the inhibition is -1.68%.

Consider `CCC(C)(C)NC(=O)CN(Cc1ccc2c(c1)OCO2)C(=O)CCC(=O)Nc1cc(C)ccn1`, for which the inhibition was active: 42.2%.

Turning to `CCN(C(=O)Cn1nc(Cc2ccncc2)c2ccccc2c1=O)c1cccc(Cl)c1`, the inhibition is -1.34%.

Consider `COc1ccc(CCNC(=O)CN2C(=O)COc3ccc(C)cc32)cc1OC`, for which the inhibition came to 7.46%.

With `COc1ccccc1N(CC(=O)N1CCC(C)CC1)S(=O)(=O)c1ccc(C)cc1`, the inhibition came to 15.8%.

With `CC(C)c1ccc(S(=O)(=O)N2CCC(N3CCN(Cc4ccccc4)C(=O)C3=O)CC2)cc1`, the inhibition was determined as 0.699%.

For `CCc1cccc(NC(=O)CN(C)S(=O)(=O)c2ccc3c(c2)CCCN3C(C)=O)c1`, the inhibition came to 4.66%.

With `COc1ccccc1-c1noc(-c2ccc(NCC3CCCO3)c([N+](=O)[O-])c2)n1` (stereo unspecified), the inhibition was found to be 20.2%.

For `Cc1cc(C)c(S(=O)(=O)NCC(c2ccc(N(C)C)cc2)N2CCOCC2)c(C)c1` (stereo unspecified), the inhibition is -3.77%.

`Cc1ccc2oc(=O)n(CCCOc3ccccc3Cl)c2c1`: the inhibition came out at 6.02%.

Turning to `CC(CCc1ccccc1)NC(=O)Cn1c(=O)nc(-c2ccccc2)c2ccccc21` (stereo unspecified), the inhibition amounted to 6.08%.

With `Cc1ccccc1Nc1c(-c2cccnc2)nc2ccc(Cl)cn12`, the inhibition turned out to be 3.69%.

`CCc1nn2c(=O)c(S(=O)(=O)Nc3ccc(Cl)cc3)c(C)nc2s1`: the inhibition is -14.3%.

Regarding `COc1ccc(C2=C(Nc3ccc(C)cc3C)c3ccccc3C2=O)cc1`, the inhibition is -2.08%.

Regarding `CCOc1ccc(CNCc2c(C(=O)O)c(C)n(Cc3c(F)cccc3Cl)c2C)cc1OC`, the inhibition is -1.95%.

`C=CCn1c(COc2ccc(F)cc2)nnc1SC(C)C(=O)NCC1CCCO1` (stereo unspecified): the inhibition is active: 61.3%.

For `Cc1ccc(-c2cn3c(n2)sc2cc(C(=O)NCCCc4ccccc4)ccc23)c(C)c1`, the inhibition stood at 2.67%.

With `CCCCN(CCCNC(=O)c1cc(Nc2ccc(OC)c(OC)c2)nc2ccccc12)c1ccccc1`, the inhibition came out at 10.7%.

Take `CC1CCCN(S(=O)(=O)c2ccc3c(c2)c(=O)nc2ccccn23)C1` (stereo unspecified): the inhibition is 7.54%.

`COc1ccccc1NC(=O)C1=C(C)Nc2nc3ccccc3n2C1c1cccc(OC)c1OC` (stereo unspecified): the inhibition was 4.04%.

Take `Cc1ccn2c(=O)cc(COc3cccc(NC(=O)Nc4cccc(Cl)c4C)c3)nc2c1`: the inhibition is -13.5%.

On to `Cc1ccc(CNC(=O)c2ccc(CS(=O)Cc3cccc(Cl)c3)o2)cc1` (stereo unspecified), for which the inhibition came out at 0.31%.

With `COc1ccc(-c2cc(C(F)(F)F)nc(SCC(=O)NCC(C)C)n2)cc1OC`, the inhibition came out at 3.72%.

With `COc1cc(C(C)=O)ccc1OCC(O)CN1CCN(c2ccccn2)CC1` (stereo unspecified), the inhibition was active: 93.3%.

In the case of `Cc1cc(Nc2cccc(C(F)(F)F)c2)nc2ccc(NC(=O)c3cccc(Cl)c3)cc12`, the inhibition was 8.33%.

In the case of `COc1ccc(NC(C)=O)cc1NC(=O)CN1CCN(c2ccc(F)cc2)CC1`, the inhibition was found to be 9.5%.

As to `O=S(=O)(c1cccc2ccccc12)N1CCN(c2ccc(Cl)c(Cl)c2)CC1`, the inhibition was 10.1%.

As to `O=C(CSc1nc(-c2ccc(F)cc2)[nH]c1-c1ccc(F)cc1)Nc1ccc2c(c1)OCO2`, the inhibition was -22.9%.

As to `O=C(Cc1ccc(-c2ccccc2)cc1)NCCS(=O)(=O)N1CCN(c2ccccc2)CC1`, the inhibition is -12%.

Regarding `COc1cc(NC(=O)CSc2ccc(-c3ccccn3)nn2)cc(OC)c1`, the inhibition is 12.5%.

As for `CCOC(=O)c1nc(Nc2ccccc2CC)c2ccccc2n1`, the inhibition was active: 33.3%.

Regarding `O=C(CCn1ccc2cc(S(=O)(=O)N3CCCC3)ccc21)NCc1ccccc1Br`, the inhibition was 12.8%.

Consider `COc1ccc(C)cc1Nc1cc(C)nc(C)n1`, for which the inhibition is 8.77%.

Turning to `O=C(CN1C(=O)c2cccnc2Oc2ccc(Cl)cc21)Nc1cccc(C(F)(F)F)c1`, the inhibition was -19.5%.

As for `CC(C)Oc1ccc(C(=O)Nc2c(C(=O)Nc3cccc(F)c3)oc3ccccc23)cc1`, the inhibition is -25.4%.

For `CC(=O)Nc1cccc(-n2cc3c(c2-c2ccccc2Cl)c(=O)n(C)c(=O)n3C)c1`, the inhibition worked out at 13.6%.

For `CCC(C(=O)N1CCN(c2ccccc2)CC1)n1c(C)c2cnn(-c3ccccc3)c(=O)c2c1C` (stereo unspecified), the inhibition stood at 14.1%.

For `Cc1nnc(N2CCC(C(=O)NCCC(C)C)CC2)c2nn(-c3ccc(Cl)cc3)c(C)c12`, the inhibition was determined as 12.9%.

Take `CCOc1cc(Cl)c(S(=O)(=O)n2ccnc2)cc1Cl`: the inhibition was -5.49%.

Consider `O=C(CN1CCN(c2ncccn2)CC1)NCc1ccc2c(c1)OCO2`, for which the inhibition was active: 37.1%.

For `CCN(CC)c1ccc(NC(=O)CCCN2C(=O)C(c3ccccc3)Oc3cccnc32)c(C)c1` (stereo unspecified), the inhibition was -1.54%.

Regarding `O=C(NC1CCCC1)c1ccc2c(=O)n(Cc3ccccc3)c(SCc3cccc(F)c3)nc2c1`, the inhibition stood at 8.85%.

Regarding `COC(=O)c1ccc(NC(=O)CN2C(=O)CC(c3ccccc3)Sc3ccccc32)cc1` (stereo unspecified), the inhibition stood at 7.34%.

As for `C=C(C)CSc1nc(-c2ccccc2)cc(-c2ccc(OC)cc2)c1C#N`, the inhibition was 6.96%.

As for `Cc1cc(C)n(C(C)CC(=O)Nc2ccc(C)c(N(C)C)c2)n1` (stereo unspecified), the inhibition is -7.89%.

For `Fc1ccccc1N1CCN(c2nc3ccccc3c3nc(-c4ccccc4)nn23)CC1`, the inhibition stood at 12.1%.

As to `CSc1ccc(-c2nnc(NC(=O)c3ccc4c(c3)OCCO4)o2)cc1`, the inhibition is -9.56%.

As for `CCc1nc2nc(C)cc(Nc3cccc(C)c3C)n2n1`, the inhibition was -0.0522%.

As for `Cc1cccc(C2CC(=O)Nc3cc4c(cc32)OCO4)c1` (stereo unspecified), the inhibition is 13%.

Turning to `CCc1ccc(NC(=O)CN2C(=O)C3(SCC(=O)N3c3ccc(F)c(F)c3)c3ccccc32)cc1` (stereo unspecified), the inhibition is -4.85%.

On to `COc1ccc(CNC(=O)CCc2c(C)c3cc4c(C)c(C)oc4cc3oc2=O)cc1OC`, for which the inhibition is -8.37%.

Take `CC(C)c1ccc(OCC(=O)N(Cc2cccs2)C2CCS(=O)(=O)C2)cc1` (stereo unspecified): the inhibition is -7.07%.

With `CCOc1ccc(NC(=O)/C(C#N)=C\c2ccc(-c3ccc(Cl)cc3)o2)cc1`, the inhibition is -4.16%.

On to `Cc1c(Cl)cccc1NC(=O)CCS(=O)(=O)c1ccc2c(c1)CC(=O)N2C`, for which the inhibition is -3.16%.

Regarding `O=C(CSc1n[nH]c(-c2ccc(F)cc2)n1)NCCc1ccccc1`, the inhibition was 2.67%.

Regarding `Cc1cc(N2CCC(N(C)C3CCCC3)CC2)nc2cc(O)ccc12`, the inhibition was active: 47.8%.

Regarding `CCN(CC)CCNC(=O)c1c2c(nc3ccccc13)C(=O)N(C1CCCCC1)C2`, the inhibition was determined as 1.65%.

For the molecule `Cc1ccc(S(=O)(=O)NCCc2cn3ccsc3n2)c(C)c1`, the inhibition came out at 4.43%.

Turning to `Cc1ccccc1NC(=O)Cn1c(=O)n(Cc2ccc3c(c2)OCO3)c(=O)c2ccccc21`, the inhibition is -0.794%.

For `COc1cccc(NC(=O)Cn2cc(C(=O)c3ccc(C)cc3)c(=O)c3cc(OC)ccc32)c1`, the inhibition is -7.48%.

`COc1ccc(NC(=O)c2oc3ccccc3c2NC(=O)Cc2coc3c(C)c(C)ccc23)cc1`: the inhibition is -5.31%.

On to `COc1ccccc1-c1cc(C(=O)NCc2ccccc2)c2c(-c3ccc(C)cc3)[nH]nc2n1`, for which the inhibition was found to be 14.2%.

With `Cc1cc(NC(=O)CCC(=O)N(CCC(C)C)C(C(=O)NC2CCCC2)c2ccccc2C)no1` (stereo unspecified), the inhibition was active: 51.5%.

For `COc1ccc(-c2nc3cc(NC(=O)CSc4ccc(C)cc4)ccc3o2)cc1`, the inhibition is -0.431%.

As to `CCc1ccc(NC(=O)Cn2ccn(-c3ccc(C)c(C)c3)c(=O)c2=O)cc1`, the inhibition was -12.3%.

With `Cc1ccc(S(=O)(=O)c2nc(S(=O)(=O)c3ccccc3)sc2NCCCOC(C)C)cc1`, the inhibition came to 10.7%.

With `Cc1cccc(-c2nc3scc(CCNS(=O)(=O)c4ccc5c(c4)OCCO5)n3n2)c1`, the inhibition stood at 9.48%.

Turning to `Cc1cccn2c(=O)c(C(=O)NCc3cccc(F)c3)cnc12`, the inhibition stood at 8.05%.

Turning to `CC1CCc2cc(F)ccc2N1C(=O)C12CCC(C)(C(=O)O1)C2(C)C` (stereo unspecified), the inhibition is active: 32%.

Regarding `CCOc1ccc(CNC(=O)Cc2ccc(NC(=O)N3CCSc4ncccc43)cc2)cc1`, the inhibition was -1.61%.

Turning to `Cc1ccc(Cl)cc1Nc1nn2c(=O)c3ccc(C(=O)NCc4ccc(F)cc4)cc3nc2s1`, the inhibition stood at 9.29%.

As to `CCCOc1ccc(-c2nc(SCC(=O)c3ccc(Cl)cc3)n[nH]2)cc1`, the inhibition is -12.7%.

In the case of `Cn1c(=O)c2sccc2n2c(CCC(=O)NCc3ccc(Cl)cc3)nnc12`, the inhibition came to 6.85%.

As for `CC(=O)c1ccc(N2CCN(C(=O)C3CCN(S(=O)(=O)c4cn(C)cn4)CC3)CC2)cc1`, the inhibition stood at 17.2%.

With `CCOC(=O)N1CCc2c(sc3c2c(=O)n(-c2ccc(Cl)cc2)c(=O)n3CC(C)C)C1`, the inhibition is 12.4%.

As for `COc1ccc(Nc2c(-c3cccc(O)c3)nc3cnccn23)cc1`, the inhibition is -8.55%.

In the case of `CCOC(=O)c1c(Nc2ccc(OC)cc2)nnc(-c2ccccc2)c1-c1ccccc1`, the inhibition is -0.395%.

As to `CCOc1ccc(NC(=O)COc2ccc(S(=O)(=O)NC3CCCCC3)cc2)cc1`, the inhibition is -5.21%.

As for `CN1CCN(c2ncc3c(n2)CCN(Cc2ccc(Br)s2)C3)CC1`, the inhibition was -18.8%.

On to `COc1ccc(-c2csc(=Nc3ccccc3)n2CCO)cc1F`, for which the inhibition was -3.36%.

In the case of `COc1ccccc1N1CCN(CCN(C(=O)C2CCCCC2)c2ccccn2)CC1`, the inhibition was active: 70.3%.

For the molecule `Cn1nnnc1SCCNCc1cc(Br)ccc1OCc1ccccc1Cl`, the inhibition is -15.7%.

In the case of `Cc1ccc(C(=O)Nc2cccc3cccnc23)cc1Cl`, the inhibition is -20.2%.

Consider `COc1cccc(OC)c1C(=O)NCCc1csc(-c2ccc(Cl)cc2)n1`, for which the inhibition was -21%.
